Results taken from the supplement of paper PMC4967469.
A lower IC50 marks a more sensitive line; a limit (>, <) means that the fit lies beyond the doses tested. AUC sums up the same curve from the lowest dose to the 256-fold higher top dose: 1 means no effect, lower means more sensitive. For some assays here: A top dose marked as inferred comes from the curve model; the source does not state it.

Assays:
Assay in all cases: Viability of human cancer cell lines after 72 h of drug (GDSC screen)
17-AAG = compound: C=CCNC1=C2C[C@@H](C)C[C@H](OC)[C@H](O)[C@@H](C)/C=C(\C)[C@H](OC(N)=O)[C@@H](OC)/C=C\C=C(/C)C(=O)NC(=CC1=O)C2=O [17-AAG]; conditions: top dose 1 µM
Experimental: (§1)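 Human cancer cell lines in 384-well plates, medium with 10% serum, drug for 72 h over a 256-fold dose range (nine 2-fold or five 4-fold steps up to the top dose). Adherent lines were fixed and stained with the nucleic acid dye Syto60, suspension lines read with resazurin; signal relative to control wells, capped at 0 and 100%. One two-parameter sigmoid per drug and line, fitted in a mixed model over all curves with the slope shared within a line.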

CCT018159 = compound: CCc1cc(-c2n[nH]c(C)c2-c2ccc3c(c2)OCCO3)c(O)cc1O [CCT018159]; conditions: top dose 10 µM; top dose inferred
Experimental: as §1

BIX02189 = compound: CN(C)Cc1cccc(N=C(c2ccccc2)c2c(O)[nH]c3cc(C(=O)N(C)C)ccc23)c1 [BIX02189]; conditions: top dose 20 µM; top dose inferred
Experimental: as §1

Dimethyloxalylglycine = compound: COC(=O)CNC(=O)C(=O)OC [Dimethyloxalylglycine]; conditions: top dose 4000 µM; top dose inferred
Experimental: as §1

Doxorubicin = compound: COc1cccc2c1C(=O)c1c(O)c3c(c(O)c1C2=O)C[C@@](O)(C(=O)CO)C[C@@H]3O[C@H]1C[C@H](N)[C@H](O)[C@H](C)O1 [Doxorubicin]; conditions: top dose 1.024 µM
Experimental: as §1

OSI-027 = compound: COc1cccc2cc(-c3nc([C@H]4CC[C@H](C(=O)O)CC4)n4ncnc(N)c34)[nH]c12 [OSI-027]; conditions: top dose 20 µM
Experimental: as §1

Vismodegib = compound: CS(=O)(=O)c1ccc(C(=O)Nc2ccc(Cl)c(-c3ccccn3)c2)c(Cl)c1 [Vismodegib]; conditions: top dose 10 µM; top dose inferred
Experimental: as §1

VX-11e = compound: Cc1cnc(Nc2ccc(F)cc2Cl)nc1-c1c[nH]c(C(=O)N[C@H](CO)c2cccc(Cl)c2)c1 [VX-11e]; conditions: top dose 5.12 µM; top dose inferred
Experimental: as §1

TG101348 = compound: Cc1cnc(Nc2ccc(OCCN3CCCC3)cc2)nc1Nc1cccc(S(=O)(=O)NC(C)(C)C)c1 [TG101348]; conditions: top dose 10.24 µM
Experimental: as §1

UNC1215 = compound: O=C(c1ccc(C(=O)N2CCC(N3CCCC3)CC2)c(Nc2ccccc2)c1)N1CCC(N2CCCC2)CC1 [UNC1215]; conditions: top dose 1 µM; top dose inferred
Experimental: as §1

| Cell Line | AUC (17-AAG) | IC50 (17-AAG) | AUC (CCT018159) | IC50 (CCT018159) | AUC (BIX02189) | IC50 (BIX02189) | AUC (Dimethyloxalylglycine) | IC50 (Dimethyloxalylglycine) | AUC (Doxorubicin) | AUC (OSI-027) | IC50 (OSI-027) | AUC (Vismodegib) | IC50 (Vismodegib) | AUC (VX-11e) | IC50 (VX-11e) | AUC (TG101348) | IC50 (TG101348) | AUC (UNC1215) | IC50 (UNC1215) | IC50 (Doxorubicin) |
| --- | --- | --- | --- | --- | --- | --- | --- | --- | --- | --- | --- | --- | --- | --- | --- | --- | --- | --- | --- | --- |
| LAMA-84 (chronic myeloid leukaemia, suspension) | 0.798 | 0.483 µM | 0.89 | > 10 µM | 0.628 | 2.83 µM | 0.76 | 1430 µM | 0.782 | 0.251 | 0.238 µM | 0.932 | > 10 µM | 0.666 | 0.935 µM | 0.54 | 0.824 µM | 0.963 | > 1 µM | – |
| LC4-1 (lymphoblastic leukaemia, suspension) | 0.985 | > 1 µM | 0.985 | > 10 µM | 0.82 | 13.1 µM | 0.334 | 81.6 µM | 0.688 | 0.136 | < 0.0781 µM | 0.985 | > 10 µM | 0.879 | > 5.12 µM | 0.493 | 0.609 µM | 0.982 | > 1 µM | 0.23 µM |
| LCLC-103H (large cell lung carcinoma, adherent) | 0.948 | > 1 µM | 0.919 | > 10 µM | 0.908 | > 20 µM | 0.682 | 765 µM | 0.317 | 0.476 | 1.08 µM | 0.973 | > 10 µM | 0.984 | > 5.12 µM | 0.747 | 3 µM | 0.987 | > 1 µM | 0.0208 µM |
| LNZTA3WT4 (glioma, adherent) | 0.762 | 0.351 µM | 0.906 | > 10 µM | 0.965 | > 20 µM | 0.653 | 659 µM | 0.744 | 0.783 | 8.27 µM | 0.956 | > 10 µM | 0.981 | > 5.12 µM | 0.978 | > 10.2 µM | 0.987 | > 1 µM | 0.315 µM |
| LOUCY (T-cell lymphoblastic leukaemia, suspension) | 0.958 | > 1 µM | 0.935 | > 10 µM | 0.884 | 14.8 µM | 0.059 | < 15.6 µM | 0.346 | 0.292 | 0.369 µM | 0.991 | > 10 µM | 0.991 | > 5.12 µM | 0.574 | 0.978 µM | 0.991 | > 1 µM | 0.0262 µM |
| LS-411N (large intestine, adherent) | 0.77 | 0.462 µM | 0.939 | > 10 µM | 0.96 | > 20 µM | 0.866 | > 4000 µM | 0.554 | 0.567 | 1.98 µM | 0.969 | > 10 µM | 0.582 | 0.562 µM | 0.821 | 7.71 µM | 0.978 | > 1 µM | 0.093 µM |
